# Source: the BET-seq Pho4 binding data (Le et al. 2018)
# The list shows a part of the results. The energies were worked out here from pooled read counts, against the library average; single values are noisy.
# Target: T1, Pho4 (S. cerevisiae) (UniProt P07270)
# T1 sequence: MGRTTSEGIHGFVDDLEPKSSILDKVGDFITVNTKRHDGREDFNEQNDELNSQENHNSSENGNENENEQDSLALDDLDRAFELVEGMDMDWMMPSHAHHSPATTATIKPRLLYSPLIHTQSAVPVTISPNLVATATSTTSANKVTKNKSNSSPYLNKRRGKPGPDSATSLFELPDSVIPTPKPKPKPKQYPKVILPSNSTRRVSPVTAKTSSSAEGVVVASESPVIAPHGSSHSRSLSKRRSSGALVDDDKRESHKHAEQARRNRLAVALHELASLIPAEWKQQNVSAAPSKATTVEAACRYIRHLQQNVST
# Experiment: relative binding free energy (BET-seq); higher = weaker binding
# Details: reference: library average
row,Sequence,relative binding free energy
1,ATAGGCACGTGAGATT,0.13 kcal/mol
2,TTGGACACGTGGAATA,0.11 kcal/mol
3,TTATCCACGTGTTGAT,0 kcal/mol
4,TGGTCCACGTGGTTTG,0.07 kcal/mol
5,TTTATCACGTGTTACA,0.09 kcal/mol
6,TTTTTCACGTGTTTAT,0.36 kcal/mol
7,TTTTTCACGTGATTGG,0.27 kcal/mol
8,ATAAACACGTGTAGTT,-0.12 kcal/mol
9,CTTTGCACGTGGAGTT,0.03 kcal/mol
10,TAATGCACGTGGGTGT,-0.2 kcal/mol
11,GTAATCACGTGTTATG,0.21 kcal/mol
12,TCTGACACGTGTATGG,0 kcal/mol
13,TTGATCACGTGTGATA,0.14 kcal/mol
14,ATGAGCACGTGAGTGA,0.22 kcal/mol
15,ATGATCACGTGGCAGT,0.14 kcal/mol
16,TTGACCACGTGGTTTA,-0.06 kcal/mol
17,GTAGGCACGTGTATCG,0.04 kcal/mol
18,GCGAGCACGTGAGTGA,0.4 kcal/mol
19,CGGTACACGTGTTGTA,0.02 kcal/mol
20,TAAAACACGTGTATTT,0.09 kcal/mol
21,TGTTGCACGTGTTAGT,0.03 kcal/mol
22,ATACGCACGTGGTAGG,-0.18 kcal/mol
23,ACTATCACGTGTTAGG,0.11 kcal/mol

row,Sequence,relative binding free energy
1,ACGTTCACGTGGTCTT,0.09 kcal/mol
2,ATTTGCACGTGGGTTT,-0.07 kcal/mol
3,AAGGGCACGTGGTCAT,-0.23 kcal/mol
4,GGTGGCACGTGATACG,0.01 kcal/mol
5,TTTCTCACGTGTTGGA,0.29 kcal/mol
6,TTTATCACGTGCGTGG,0.09 kcal/mol
7,TGTGTCACGTGATCTT,0.19 kcal/mol
8,GTAGTCACGTGTGAAG,0.24 kcal/mol
9,TGCTACACGTGAGGTG,0.2 kcal/mol
10,ATGCGCACGTGGTAGG,-0.25 kcal/mol
11,TTTCGCACGTGGATGT,0.01 kcal/mol
12,ATTCGCACGTGGTTAG,0.03 kcal/mol
13,TTATGCACGTGCTGGC,-0.14 kcal/mol
14,AGGTGCACGTGTAACG,0.09 kcal/mol
15,ATATGCACGTGGAGGA,-0.01 kcal/mol
16,TTTAGCACGTGGTTCT,-0.04 kcal/mol
17,CGATTCACGTGTATGG,0.23 kcal/mol
18,TTGAGCACGTGGGACA,-0.18 kcal/mol
19,TAGTCCACGTGTTTTG,0.07 kcal/mol
20,AGTTGCACGTGGGCAT,-0.27 kcal/mol
21,ATCTACACGTGTGGTG,0.13 kcal/mol
22,CTGGTCACGTGTGAGG,0.15 kcal/mol
23,AGTTACACGTGATGAT,0.22 kcal/mol

row,Sequence,relative binding free energy
1,GTCAACACGTGAGGGG,0.24 kcal/mol
2,AGGTGCACGTGACAGG,0.09 kcal/mol
3,CAGTACACGTGGTGGT,0.01 kcal/mol
4,GGGTACACGTGAATTT,0.47 kcal/mol
5,GGGGACACGTGAAAGT,0.27 kcal/mol
6,TTTTGCACGTGTTGAA,0.1 kcal/mol
7,GTAGGCACGTGAGCAG,0.15 kcal/mol
8,TGGGCCACGTGATTGA,0.13 kcal/mol
9,CGGTACACGTGGGAAA,0.23 kcal/mol
10,TTTGACACGTGCTATT,-0.04 kcal/mol
11,AGTGTCACGTGTTTAT,0.1 kcal/mol
12,GCGATCACGTGTTGGT,0.26 kcal/mol
13,GGTTACACGTGGGGGA,0.02 kcal/mol
14,AGTTGCACGTGCGTTG,-0.06 kcal/mol
15,CAGGGCACGTGAGCGG,0.18 kcal/mol
16,AGTGACACGTGATGAT,0.13 kcal/mol
17,TTGATCACGTGATATT,0.22 kcal/mol
18,ATTTTCACGTGTTTCG,0.29 kcal/mol
19,TTTCTCACGTGGGTGA,0 kcal/mol
20,TGCTACACGTGGTGGC,0.18 kcal/mol
21,ATCGTCACGTGTGTGT,0.05 kcal/mol
22,GGTATCACGTGGTACT,0.12 kcal/mol
23,TGCATCACGTGACGTG,0.26 kcal/mol

row,Sequence,relative binding free energy
1,GAAGCCACGTGAGGGG,0.31 kcal/mol
2,GAAGGCACGTGAGTGG,0.09 kcal/mol
3,CATTTCACGTGGGTGT,0.2 kcal/mol
4,ATAGACACGTGGGGTG,-0.1 kcal/mol
5,TTGATCACGTGCTATT,0.02 kcal/mol
6,AAGGCCACGTGGAGGT,-0.11 kcal/mol
7,TTAGGCACGTGGTGTA,-0.18 kcal/mol
8,TGATTCACGTGTGTTT,0.29 kcal/mol
9,TTTTGCACGTGAGAGC,0.19 kcal/mol
10,TTATTCACGTGTGCGT,0.17 kcal/mol
11,CCTGGCACGTGGTTAG,-0.19 kcal/mol
12,TGGTGCACGTGGCTTG,-0.05 kcal/mol
13,CATTGCACGTGTTGTG,-0.08 kcal/mol
14,TTCGTCACGTGTTGTT,0.18 kcal/mol
15,TTCGCCACGTGGATGG,0.09 kcal/mol
16,AGGGACACGTGTCATT,0 kcal/mol
17,GGGGTCACGTGCCTAG,0.19 kcal/mol
18,GGATACACGTGGGGTG,-0.1 kcal/mol
19,GAGGTCACGTGATGGT,0.38 kcal/mol
20,CTTTGCACGTGTGGCG,-0.04 kcal/mol
21,AATGTCACGTGATGAG,0.08 kcal/mol
22,GGTTGCACGTGGGGCG,0.01 kcal/mol
23,GTCGTCACGTGGCTGT,0.04 kcal/mol

row,Sequence,relative binding free energy
1,GTTCGCACGTGTCTTG,-0.03 kcal/mol
2,TGCAGCACGTGAAGTG,0.16 kcal/mol
3,GTTCTCACGTGCTTTG,0.27 kcal/mol
4,GGGGACACGTGCGATG,0.1 kcal/mol
5,AGGGGCACGTGGACGG,-0.04 kcal/mol
6,TATAACACGTGAAGGT,0.19 kcal/mol
7,TTAAACACGTGGTTTG,0.01 kcal/mol
8,TTCGGCACGTGGGTCT,-0.16 kcal/mol
9,TGGATCACGTGCGTGA,0.08 kcal/mol
10,TGTGTCACGTGACATA,0.13 kcal/mol
11,TTGTACACGTGACATT,0.22 kcal/mol
12,TCGTACACGTGTGGTC,0.16 kcal/mol
13,TCGGCCACGTGGTGTA,-0.04 kcal/mol
14,ACGGACACGTGGGAGT,-0.19 kcal/mol
15,GTGTTCACGTGTAAGA,0.27 kcal/mol
16,GGGTGCACGTGGCAAA,-0.03 kcal/mol
17,ATAAACACGTGGTAGG,-0.06 kcal/mol
18,TTGCTCACGTGGTGAA,0.23 kcal/mol
19,AATTACACGTGGGATT,0.07 kcal/mol
20,TGGGTCACGTGAAATC,0.35 kcal/mol
21,TGAGCCACGTGTTTAT,-0.02 kcal/mol
22,GGCGGCACGTGGTATA,-0.11 kcal/mol
23,CGAGTCACGTGGGCTG,-0.01 kcal/mol
